Reference: article PMC4336329 (PLoS ONE, 2015)
About 2,200 (0.71%) of roughly 310,000 compounds showed an effect of 50% or more. Effects have a minus sign here. This is one part of the list.

target: human ether-à-go-go-related gene (hERG) potassium channel (human, UniProt Q12809); experiment: primary screen, population patch clamp on CHO cells stably expressing hERG
Sequence (Q12809 whole entry, looked up): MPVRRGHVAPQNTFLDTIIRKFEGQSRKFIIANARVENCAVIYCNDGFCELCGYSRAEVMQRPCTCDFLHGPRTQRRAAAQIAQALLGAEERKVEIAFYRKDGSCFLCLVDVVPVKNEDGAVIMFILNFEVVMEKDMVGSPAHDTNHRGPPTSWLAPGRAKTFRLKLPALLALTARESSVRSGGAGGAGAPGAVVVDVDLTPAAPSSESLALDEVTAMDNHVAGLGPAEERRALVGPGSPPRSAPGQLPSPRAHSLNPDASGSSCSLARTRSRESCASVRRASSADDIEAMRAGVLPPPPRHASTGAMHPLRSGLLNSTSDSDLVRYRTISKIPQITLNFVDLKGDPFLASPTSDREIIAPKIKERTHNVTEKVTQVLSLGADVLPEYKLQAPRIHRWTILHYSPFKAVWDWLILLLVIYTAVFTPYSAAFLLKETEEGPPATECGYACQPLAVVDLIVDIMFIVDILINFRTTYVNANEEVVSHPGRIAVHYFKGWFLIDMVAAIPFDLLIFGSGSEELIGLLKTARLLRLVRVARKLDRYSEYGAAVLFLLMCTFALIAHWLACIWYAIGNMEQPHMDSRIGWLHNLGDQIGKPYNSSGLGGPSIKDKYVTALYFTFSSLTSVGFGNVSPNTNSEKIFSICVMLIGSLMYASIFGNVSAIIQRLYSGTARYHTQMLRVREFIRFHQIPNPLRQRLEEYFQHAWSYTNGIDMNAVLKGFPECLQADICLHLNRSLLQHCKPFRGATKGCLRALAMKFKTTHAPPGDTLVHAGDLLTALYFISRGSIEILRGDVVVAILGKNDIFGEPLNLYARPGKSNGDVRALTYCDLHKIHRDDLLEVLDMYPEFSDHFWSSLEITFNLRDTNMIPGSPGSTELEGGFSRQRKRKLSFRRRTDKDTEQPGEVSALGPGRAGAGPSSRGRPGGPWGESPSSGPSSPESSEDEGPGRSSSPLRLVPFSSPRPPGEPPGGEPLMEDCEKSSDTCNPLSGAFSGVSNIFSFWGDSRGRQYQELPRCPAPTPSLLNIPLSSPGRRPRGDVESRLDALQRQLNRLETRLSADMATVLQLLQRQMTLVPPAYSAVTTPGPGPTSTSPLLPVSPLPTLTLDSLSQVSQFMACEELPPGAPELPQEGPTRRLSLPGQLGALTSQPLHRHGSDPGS

| SMILES | hERG current change (%, negative = inhibition) at 1uM [%] |
| --- | --- |
| Cc1cccc(C)c1NC(=O)CSc1nnc(-c2cnccn2)n1C | 12.7 |
| C/C(=N/NS(=O)(=O)c1cccc([N+](=O)[O-])c1)c1ccncc1 | 7.07 |
| O=[N+]([O-])c1cccc(Cl)c1NCCNS(=O)(=O)c1ccccc1 | 0.78 |
| Cc1cc2oc(=O)cc(CN3CCOCC3)c2cc1Cl | 16.6 |
| CCN(CC(O)c1cccc(O)c1)C(=O)C12CC3CC(CC(C3)C1)C2.Cl (stereo not shown) | 9.66 |
| CCS(=O)(=O)c1nc(S(=O)(=O)c2ccc(C)cc2)c(N2CC(C)OC(C)C2)s1 (stereo not shown) | 10.1 |
| COc1cc(C(c2c(C)[nH][nH]c2=O)c2c(C)[nH][nH]c2=O)ccc1OS(=O)(=O)c1ccccc1 | 2.84 |
| Cc1onc(-c2ccccc2)c1C(=O)Nc1nnc(CC(C)C)s1 | 8.63 |
| CCC(=O)Nc1ccc2nc(SCC(=O)N3CCOCC3)sc2c1 | 6.41 |
| COc1ccc(S(=O)(=O)N(C)c2ccc(C(=O)N3CCCCC3)cc2)cc1OC | 2.42 |
| COC(=O)C(C(=O)OC)N1C(=O)CCC1=O | -4.43 |
| O=C(O)/C=C/C(=O)N(CC1CCCO1)C1CC(=O)N(c2c(Cl)cccc2Cl)C1=O (stereo not shown) | 12.2 |
| COC(=O)c1c(C)nc(C)c(C(=O)OC)c1-c1cccs1 | 3.4 |
| CCC(Oc1ccccc1)C(=O)Nc1cc(Cl)ccc1-n1cncn1 (stereo not shown) | 14.7 |
| Fc1cc(Br)ccc1NC(=S)Nc1ccccc1 | 9.18 |
| CCOC(=O)N1CCN(c2ncnc3scc(-c4ccccc4)c23)CC1 | 11.5 |
| Cc1nc(NCCc2ccccc2)c2nnn(Cc3ccccc3Cl)c2n1 | 15.9 |
| O=C(O)c1ccc(Oc2cccc([N+](=O)[O-])c2)cc1C(=O)O | 11 |
| CC(=O)O[C@H]1C(=O)[C@@]2(C)[C@H]([C@H](OC(=O)c3ccccc3)[C@]3(O)C[C@H](OC(=O)[C@H](O)C(NC(=O)c4ccccc4)c4ccccc4)C(C)=C1C3(C)C)[C@]1(OC(C)=O)CO[C@@H]1C[C@@H]2O (stereo partly shown) | 12.2 |
| CC(NC(=O)c1ccccc1Cl)C1CC2CCC1C2 (stereo not shown) | 10.3 |
| CCCc1nnc(SCc2ccc(OCC)cc2)n1N | 12.1 |
| COc1ccc(/C=C/C(=O)O)cc1S(=O)(=O)NCC1CCCO1 (stereo not shown) | 0.599 |

| SMILES | hERG current change (%, negative = inhibition) at 1uM [%] |
| --- | --- |
| COc1ccc(C)cc1Nc1n[n+](-c2ccccc2)c(-c2ccc(NC(C)=O)cc2)s1.[Cl-] | 13.3 |
| O=C(c1cccc(N2CCCC2=O)c1)N1CCN(c2cccc(Cl)c2)CC1 | 9.22 |
| O=C(Nc1ccc(Cl)cn1)c1ccc2ccccc2n1 | 13 |
| Cn1c(-c2cc(Br)ccc2O)n[nH]c1=S | 19.6 |
| COc1ccc(C(=O)NCC(c2ccco2)N2CCOCC2)cc1OC (stereo not shown) | 19.9 |
| CN(C(=O)COC(=O)CSc1ccc(C(N)=O)cc1[N+](=O)[O-])C1CCS(=O)(=O)C1 (stereo not shown) | -11.4 |
| COc1ccc(OC)c(NC(=O)CN2CCC(C(=O)c3ccc(C)cc3)CC2)c1 | 0.612 |
| Cc1nnc(SCCn2c(N(C)Cc3ccccc3)nc3c2c(=O)n(C)c(=O)n3C)s1 | -1.88 |
| O=C(C1CCN(c2ccc(N3CCOCC3)nn2)CC1)N1CCN(c2ccc(F)cc2)CC1 | -23.3 |
| Cc1nc2ccccc2nc1OCc1cccc([N+](=O)[O-])c1 | 1.18 |
| COc1ccc(Cl)cc1S(=O)(=O)N(C)CC(=O)NCCCn1ccnc1 | 8.8 |
| Cc1ccc(S(=O)(=O)NC(C)(C)CN2CCc3ccccc3C2)cc1 | -4.87 |
| CC1CCc2c(sc(NC(=O)Cn3nc(C(=O)O)c4ccccc4c3=O)c2C#N)C1 (stereo not shown) | 6.58 |
| C[C@H](NC(=O)OC(C)(C)C)C(=O)NCC1CCC(C(=O)N[C@@H](Cc2ccccc2)C(=O)O)CC1 (stereo partly shown) | 15.1 |
| CCn1cc(S(=O)(=O)N2CCCC2)cn1 | 15.5 |
| COc1ccc(N(Cc2ccccc2)S(=O)(=O)c2ccc(C)cc2)cc1 | 9.18 |
| Cc1cc(C)n2nc(C(=O)N/N=C/c3cccc(Cl)c3)nc2n1 | -0.287 |
| CCC1(CC)NC(=O)N(CC(=O)N2CCN(S(=O)(=O)c3cccc(F)c3)CC2)C1=O | 6.92 |
| NC(=O)CSc1nnc(COc2ccc3ccccc3c2)o1 | 17.3 |
| COCCCN1C(=O)C(=O)/C(=C(/O)c2ccc(S(=O)(=O)N3CCCCC3)cc2)C1c1ccc(F)cc1 (stereo not shown) | 11.5 |
| COc1ccc(NS(=O)(=O)c2ccc(NS(=O)(=O)c3cccc(C(=O)O)c3)cc2)cc1 | 4.1 |
| CC1=CC(C)(C)N(C(=O)CN2C(=O)CCC2=O)c2ccc(C)cc21 | 1.14 |

| SMILES | hERG current change (%, negative = inhibition) at 1uM [%] |
| --- | --- |
| O=C(c1ccccc1Cl)c1c(O)c2ccccc2oc1=O | 2.85 |
| O=C(COC(=O)c1ccc(Cl)nc1)NCc1cccs1 | -5.65 |
| CCN(CC(=O)NCc1ccc(F)cc1)C(=O)C1CC1C (stereo not shown) | 5.77 |
| O=C(Nc1ccccc1N1CCOCC1)c1ccc(OCc2cscn2)cc1 | 10.8 |
| COCCN(Cc1nc2ccccc2c(=O)[nH]1)C(=O)COc1cccc(C(C)=O)c1 | -0.788 |
| Cn1c(=O)c2c(SCc3cccnc3)nc(C3CC3)nc2n(C)c1=O | 8.33 |
| CC(=O)Nc1ccc(NC(=O)C(C)Oc2ccc(C)nc2[N+](=O)[O-])cc1 (stereo not shown) | 7.08 |
| Cc1cc(C)c2nc(N(CCCN(C)C)C(=O)c3ccc(S(=O)(=O)N4CC(C)OC(C)C4)cc3)sc2c1.Cl (stereo not shown) | -5.85 |
| CCNC(=O)C(=O)Nc1cc2c3c(c1)CCC(=O)N3CCC2 | 20.5 |
| CC(C)c1ccc(NC(=O)CNC(=O)Cn2ccc3ccccc3c2=O)cc1 | 11.7 |
| COc1ccc(-c2cc(C(=O)N3CCCc4ccccc43)no2)cc1OC | 5.3 |
| CC(C)(C)OC(=O)N[C@@H](C(=O)OC(C)(C)C)c1ccc(C(F)(F)F)cc1 | 10.1 |
| COc1cc(C(=O)Nc2ccc3c(c2)C(=O)N(CCC(=O)O)C3=O)cc(OC)c1OC | 3.06 |
| COCCSc1nnc(NC(=O)c2cc(C(=O)OC)cc([N+](=O)[O-])c2)s1 | 9.56 |
| CC(OC(=O)c1cccs1)C(=O)NCc1ccco1 (stereo not shown) | 11.3 |
| O=C(NCCC1=CCCCC1)c1ccc(-n2cncn2)cc1 | 12.6 |
| C=CCN(CC=C)S(=O)(=O)c1ccc(C(=O)Nc2nnc(COC)o2)cc1 | 14.2 |
| O=C1c2ccccc2C(=O)N1CCc1nc(-c2ccncc2)no1 | 4.33 |
| CCc1c(C)nc2ncnn2c1N1CCC(C(=O)NCc2cccc(OC)c2)CC1 | -24.1 |
| Cn1c(C(O)c2ccc3c(c2)OCO3)nc2ccccc21 (stereo not shown) | 5.33 |
| Oc1ccc(C=Nc2ccc3ncccc3c2)c(O)c1 | 5.21 |
| CCOC(=O)CNC(=O)N1CCCC(C(=O)c2ccccc2SC)C1 (stereo not shown) | 8.47 |

| SMILES | hERG current change (%, negative = inhibition) at 1uM [%] |
| --- | --- |
| Cc1cc(-c2nn(-c3ccccc3F)cc2CN2CCCC(O)C2)c(C)s1 (stereo not shown) | 0.993 |
| O=C(COCc1nc2ccccc2c(=O)[nH]1)NCC1CCCCC1 | -11.9 |
| Cn1nnnc1Sc1ncnc2scc(-c3ccc(C(F)(F)F)cc3)c12 | 16.9 |
| Nc1ccc(-c2nc3ccccc3[nH]2)cc1 | 1.55 |
| C=CCNC(=O)/C(C#N)=C/c1c(N(Cc2ccccc2)Cc2ccccc2)nc2ccccn2c1=O | 6.51 |
| CC(NC(=S)N1CCN(c2ccccc2)CC1)c1ccccc1 (stereo not shown) | 8.9 |
| Cc1cccc(Cn2c(SCC(=O)Nc3ccccc3)nc3c2c(=O)[nH]c(=O)n3C)c1 | 3.88 |
| CCOC(=O)C(=Cc1cn(C)c2ccc(S(=O)(=O)N(C)C)cc12)C(=O)OCC | 9.35 |
| Cc1ccc(S(=O)(=O)Nc2c(O)ccc3ccccc23)cc1 | 7.7 |
| O=C(N/N=C/c1c(Nc2cccc(C(F)(F)F)c2)nc2ccccn2c1=O)c1ccccc1[N+](=O)[O-] | 8.51 |
| COc1ccc(C2=NN(C(=O)CCC(=O)O)C(c3ccc(OC)cc3)C2)cc1 (stereo not shown) | 11.2 |
| O=C(Cc1cccc(C(F)(F)F)c1)OCC(=O)N1CCN(S(=O)(=O)c2ccc(Cl)cc2)CC1 | -2.72 |
| CCOc1ccccc1C1CC(=O)Nc2cc(C)c(C)cc21 (stereo not shown) | -12.8 |
| CCOc1ccc(CCNC(=O)CCc2nc3ccccc3[nH]2)cc1OCC | 10.7 |
| C=CCOc1c(Br)cc(CNn2c(C)n[nH]c2=S)cc1OCC | 12.9 |
| Br.COc1ccc(-c2nc3n(c2Br)CCC3)cc1 | -3.59 |
| COCCn1c(=O)[nH]c2cc(C(=O)Nc3nnc(C)s3)ccc21 | 6.88 |
| CCCNC(=S)NCc1ccc(Cl)cc1 | 1.33 |
| Cc1cc(OC(=O)c2cc(Cl)nc3ccccc23)ccc1Cl | 9.26 |
